This note sets out measurements from ChEMBL document CHEMBL4888484, “Replenishing the malaria drug discovery pipeline: Screening and hit evaluation of the MMV Hit Generation Library 1 (HGL1) against asexual blood stage Plasmodium falciparum ,using a nano luciferase reporter read-out” (2022).

The campaign covered roughly 150,000 compounds. About 540 (0.36%) showed an effect of 50% or more. This is one part of the list.

The test system of the assay is Plasmodium falciparum. The assay is described as follows: Primary screen in NF54 nanoGlo assay, in single point, at 2uM, 72h; a lower Z score goes with more inhibition. It is filed as functional, Erythrocyte. The note with it: timepoint 72 hour.
The % Inhibition is the change of the read-out against control, counted positive when it falls. For the molecule `O=C(Cc1cccc(N(Cc2ccc(F)cc2)C(=O)c2cccs2)c1)NCC1CC1`, the “% Inhibition” value stood at 2% and the Z score is -0.24.
For the molecule `CC(C)CN1CCCN(Cc2cc3ccc(Cl)cc3nc2O)CC1`, the “% Inhibition” value is -26% and the Z score is on record as 2.6.
As to `C[C@]1(C(=O)N2CCc3cncnc3C2)CCCN(C(=O)c2ccccc2)C1`, the “% Inhibition” value is listed as -1% and the Z score worked out at 0.16.
Taken in the same sequence, the figures for `Cc1ccc(CC(=O)NC2(C#N)CCC(C(C)(C)C)CC2)cn1` (stereo not drawn) were -11% and 1.98.
`COCC1CN(C(=O)N[C@@H](C)c2ccc(OC(F)F)cc2)C1`: the “% Inhibition” value is -8% and the Z score was determined as 1.48.
For the molecule `CCCC(C)(CCCNC(=O)[C@@H]1Cc2ccccc2N1C(C)=O)C1OCCO1` (stereo partly drawn), the “% Inhibition” value is on record as -9% and the Z score was 1.42.
`O=C(c1cccc(S(=O)(=O)N2CCOCC2)c1)N1CCC[C@H]1c1nnc2ccccn12`: the “% Inhibition” value is 3% and the Z score is -0.33.
For `Cc1cnc(N2CCC(OCc3cccnc3)CC2)nc1N`, in that order: 11% and -2.21.
Consider `O=C1OCCN1CCCn1cc(Cl)cn1`, for which the “% Inhibition” value is on record as 7% and the Z score is reported as -1.05.
`O=C(N[C@H]1CCC[C@H]1C(=O)O)c1ccc(-c2ccccc2)[nH]1`: the “% Inhibition” value is on record as -7% and the Z score worked out at 0.87.
Taken in the same sequence, the figures for `Cn1ccnc1CN[C@@H]1CO[C@H](CNC(=O)c2ccc(F)cc2)[C@H]1O` were -5% and 0.98.
On to `CNC(=O)[C@H]1CCN(C(=O)NC2CCCCC2)C1`, for which the “% Inhibition” value stood at 2% and the Z score is recorded as -0.2.
Consider `C#C[C@H](C)NC(=O)COC1CCC(NC(=O)OC(C)(C)C)CC1` (stereo partly drawn), for which the “% Inhibition” value is recorded as -10% and the Z score stood at 1.96.
`CC(C)COC(C)C(=O)NC(C)c1cccs1` (stereo not drawn): the “% Inhibition” value is listed as -17% and the Z score worked out at 1.77.
Turning to `CC1CC1c1ccc(CN(C)C(=O)CC(F)(F)F)o1` (stereo not drawn), the “% Inhibition” value is -7% and the Z score was found to be 0.9.
Taken in the same sequence, the figures for `COc1cccc(-c2nc(C)c(C(=O)NC[C@@H]3CCCN4CCCCC34)s2)c1` (stereo partly drawn) were -1% and 0.17.
For `Cc1nc(CNC(=O)N2CCC(CCc3ccc(F)cc3F)CC2)no1`, in that order: -9% and 1.16.
Turning to `Cc1cc(NC(=O)COc2c(Cl)c(Cl)c(Cl)c(Cl)c2Cl)n(C)n1`, the “% Inhibition” value is reported as -15% and the Z score was found to be 1.62.
As to `CCOc1ccc(NC(=O)Cn2ccn(-c3ccc(OC)cc3)c2=O)cc1`, the “% Inhibition” value is -2% and the Z score stood at 0.39.
Taken in the same sequence, the figures for `CCCN(C(=O)Nc1cccnc1)c1ccccc1` were -19% and 1.79.
For `COCCn1ccc2ccn(Cc3nc(-c4ccncc4)no3)c(=O)c21`, in that order: -27% and 2.36.
For `Cc1nn(S(=O)(=O)N(C)C)c(C)c1C`, in that order: 4% and -0.69.
`Cc1oc(C(C)C)cc1C(=O)N1C[C@@H](CN2CCCCC2)[C@@H](CO)C1`: the “% Inhibition” value is reported as -9% and the Z score stood at 1.39.
For `COc1ccc(CNC(=O)Cn2ccnc2-c2ccnc(N3CCCC3)c2)cc1`, in that order: 12% and -1.42.
Taken in the same sequence, the figures for `CC(NC(=O)NC(C)(C)c1ccc2c(c1)OCO2)C1CCCO1` (stereo not drawn) were -7% and 1.13.
With `COc1cccc(C2=NO[C@H](C(=O)N3CCCC3)C2)c1`, the “% Inhibition” value is recorded as -11% and the Z score was determined as 1.65.
Taken in the same sequence, the figures for `Cc1ccc(NC(=O)Cn2c(=O)n(Cc3ccc4c(c3)OCO4)c(=O)c3ccccc32)c(C)c1` were 6% and -0.66.
For `COc1cc(OC)c2ncnc(NC3CCN(C(=O)C(C)C)CC3)c2c1`, in that order: -1% and 0.24.
As to `CCc1nn(C)cc1CNc1cnccc1N1CCCC1`, the “% Inhibition” value was -13% and the Z score amounted to 2.09.
On to `CCn1c(CCc2cccc(NC(=O)Nc3cc(F)ccc3F)c2)nc2ccccc21`, for which the “% Inhibition” value was -1% and the Z score is 0.17.
For `Cc1cc(-c2cc(S(=O)(=O)N3C[C@H](O)[C@@H](F)C3)c(C)s2)[nH]n1`, in that order: -19% and 2.18.
Taken in the same sequence, the figures for `COc1ccc(-n2c(CN3CCCC3)n[nH]c2=O)c(C)c1` were -9% and 0.87.
Take `CCC(=O)NCc1ccc(-c2noc(-c3cnccn3)n2)s1`: the “% Inhibition” value stood at 5% and the Z score was -0.56.
`Cc1ncsc1CN(C)[C@H]1CCN(C(C)(C)C)C1=O`: the “% Inhibition” value is given as -15% and the Z score came out at 2.
For `CCOC(=O)c1[nH]cnc1CNc1ncnc(CC)c1F`, the “% Inhibition” value is -14% and the Z score was determined as 2.45.
For `CCn1nc(C(=O)Nc2cc(C)no2)ccc1=O`, in that order: 10% and -1.41.
Taken in the same sequence, the figures for `CCOC(=O)NC1CCC(OC(=O)c2ccc(Cn3cncn3)cc2)CC1` (stereo not drawn) were -13% and 2.41.
With `Cc1ccc(CNS(=O)(=O)c2c(C)[nH]c(C)c2-c2nnc(C)o2)cc1`, the “% Inhibition” value is on record as -7% and the Z score stood at 0.88.
`CN(CC1(CO)CCCC1)C(=O)c1cc(CO)ccn1`: the “% Inhibition” value was -1% and the Z score is on record as 0.11.
For `O=C(Nc1ccccc1)C1CCN(C(=O)c2ccc3c(c2)CCC3)CC1`, in that order: -15% and 1.96.
For `Cc1cccn2c(=O)cc(CNc3ccccc3C(=O)N3CCC[C@H](O)C3)nc12`, in that order: -2% and 0.36.
With `COc1ccc(CN2CC[C@H](c3nnc(COc4ccc(F)cc4)o3)C2)cc1`, the “% Inhibition” value was found to be 13% and the Z score is recorded as -1.56.
For `C[C@H]1CN(C(=O)c2ccc3ccccc3n2)C[C@@H]1c1nc(-c2ccncc2)no1`, in that order: -4% and 0.44.
For `Cc1ccc(C(=O)N2CCC(c3cc(N)on3)CC2)cc1`, in that order: -9% and 1.43.
For `Cc1cc(S(=O)(=O)n2c(/C=C/c3cccc(Br)c3)nc3ccccc32)ccc1F`, in that order: -5% and 0.77.
With `O=C(CC1CCCCC1)N1C[C@H](c2nnc(-c3ccncc3)o2)C2(CCOCC2)C1`, the “% Inhibition” value is -1% and the Z score is listed as 0.19.
As to `COC(=O)C[C@H]1CCCN1C(=O)c1n[nH]c(C)c1C(F)(F)F`, the “% Inhibition” value is -4% and the Z score was 0.46.
As to `O=C(O)[C@H]1CN(C(=O)CCc2ccncc2)C[C@@H]1c1ccc(F)cc1`, the “% Inhibition” value amounted to 7% and the Z score is -1.31.
Taken in the same sequence, the figures for `CN(Cc1ccc2c(c1)OCO2)C(=O)c1ccc(C(=O)O)s1` were 3% and -0.58.
Taken in the same sequence, the figures for `CCc1nc(C)sc1CNC(=O)COC(C)C` were -1% and 0.14.
For `C[C@@H](C(=O)NCCCn1ccnn1)n1ccnc1`, in that order: -7% and 1.01.
As for `COC[C@H]1CN(C)CC12CCN(Cc1ccc(Cl)c(F)c1)CC2`, the “% Inhibition” value is given as -9% and the Z score was found to be 1.03.
With `Cn1nc(C2CC2)cc1C(=O)NCc1noc(-c2cccc(F)c2)n1`, the “% Inhibition” value was -11% and the Z score is 1.91.
Taken in the same sequence, the figures for `CCOCC1CCN(C(=O)CN2CCC(C)C2)C1` (stereo not drawn) were 7% and -1.25.
